This is one part of the list. Sequences were assembled here from the parent chain. Values near 0.05 are background.
B1: TEV protease; numbered along this chain (parent)
chain: MGESLFKGPRDYNPISSSICHLTNESDGHTTSLYGIGFGPFIITNKHLFRRNNGTLVVQSLHGVFKVKDTTTLQQHLVDGRDMIIIRMPKDFPPFPQKLKFREPQREERICLVTTNFQTKSMSSMVSDTSCTFPSGDGIFWKHWIQTKDGQCGSPLVSTRDGFIVGIHSASNFTNTNNYFTSVPKNFMELLTNQEAQQWVSGWRLNADSVLWGGHKVFMVKPEEPFQPVKEATQL
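Further: Bxb1 expression induced with 0.2% (w/v) L-rhamnose at OD600 near 0.5, cultures sampled hourly, flipped fraction per protease–substrate barcode pair counted by paired-end Illumina sequencing.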

Variants of: B1
Assay: raw area under fraction-flipped curve 0-4 h after induction (AUC4h, not background-subtracted), DNA-recorder readout of cleavage of the substrate (dimensionless); higher = more cleavage of the substrate by the protease variant
Conditions: temperature: 34 °C; time window: 0-4 h after rhamnose induction
Description: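 In vivo DNA recorder in E. coli TOP10(DE3) ΔrhaA at 34 °C. Each TEVp single-site mutant (parent TEVp 0) is paired with a single-site variant of the 7-mer TEVs (canonical ENLYFQ|S). The substrate sits between flexible linkers in a Bxb1-sfGFP-TEVs-SsrA fusion, so cleavage stabilises Bxb1 and speeds flipping of a recombination array, read by NGS. The value is the raw area under the fraction-flipped curve over 0-4 h after rhamnose induction (AUC4h), with ≥20 reads per time point. It is not background-subtracted; inactive controls average about 0.047.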
In the case of L48Y, the “area with substrate DNLYFQS” value is reported as 0.0546, the “area with substrate HNLYFQS” value is reported as 0.0407 and the “area with substrate KNLYFQS” value is reported as 0.0661. For the same variant, the “area with substrate MNLYFQS” value was 0.0705, the “area with substrate NNLYFQS” value was 0.0549 and the “area with substrate RNLYFQS” value was 0.0571. The “area with substrate SNLYFQS” value was 0.0672, the “area with substrate TNLYFQS” value was 0.0572 and the “area with substrate WNLYFQS” value was 0.0585. For the same variant, the “area with substrate YNLYFQS” value was 0.0529.
In the case of V64E, the “area with substrate FNLYFQS” value is reported as 0.0689, the “area with substrate HNLYFQS” value is reported as 0.0368 and the “area with substrate MNLYFQS” value is reported as 0.0564. The “area with substrate PNLYFQS” value was 0.0738, the “area with substrate RNLYFQS” value was 0.0658 and the “area with substrate TNLYFQS” value was 0.0673. For the same variant, the “area with substrate WNLYFQS” value was 0.0186.
With P96T the “area with substrate FNLYFQS” value was 0.0677, the “area with substrate HNLYFQS” value was 0.0977 and the “area with substrate KNLYFQS” value was 0.0658. For the same variant, the “area with substrate TNLYFQS” value was 0.066 and the “area with substrate WNLYFQS” value was 0.0684.
In the case of G80D, the “area with substrate FNLYFQS” value is reported as 0.075, the “area with substrate GNLYFQS” value is reported as 0.0747 and the “area with substrate HNLYFQS” value is reported as 0.0685. For the same variant, the “area with substrate PNLYFQS” value was 0.0644, the “area with substrate QNLYFQS” value was 0.0831 and the “area with substrate TNLYFQS” value was 0.0673. The “area with substrate VNLYFQS” value was 0.0594, the “area with substrate WNLYFQS” value was 0.0245 and the “area with substrate YNLYFQS” value was 0.0755.
With T176E the “area with substrate FNLYFQS” value was 0.0603, the “area with substrate GNLYFQS” value was 0.0792 and the “area with substrate HNLYFQS” value was 0.0532. For the same variant, the “area with substrate INLYFQS” value was 0.0671, the “area with substrate LNLYFQS” value was 0.0607 and the “area with substrate MNLYFQS” value was 0.0678. The “area with substrate PNLYFQS” value was 0.0681, the “area with substrate VNLYFQS” value was 0.0571 and the “area with substrate WNLYFQS” value was 0.0548. The “area with substrate YNLYFQS” value was 0.0459.
With P96Q the “area with substrate FNLYFQS” value was 0.0616, the “area with substrate HNLYFQS” value was 0.0668 and the “area with substrate INLYFQS” value was 0.0608. For the same variant, the “area with substrate KNLYFQS” value was 0.086, the “area with substrate MNLYFQS” value was 0.0589 and the “area with substrate TNLYFQS” value was 0.0615.
With T176H the “area with substrate FNLYFQS” value was 0.0585, the “area with substrate HNLYFQS” value was 0.0682 and the “area with substrate INLYFQS” value was 0.0607. The “area with substrate KNLYFQS” value was 0.0607, the “area with substrate LNLYFQS” value was 0.0627 and the “area with substrate MNLYFQS” value was 0.0711. For the same variant, the “area with substrate NNLYFQS” value was 0.0576, the “area with substrate PNLYFQS” value was 0 and the “area with substrate TNLYFQS” value was 0.0516. The “area with substrate VNLYFQS” value was 0.0763, the “area with substrate WNLYFQS” value was 0.0549 and the “area with substrate YNLYFQS” value was 0.0754.
In the case of K120A, the “area with substrate GNLYFQS” value is reported as 0.0539, the “area with substrate HNLYFQS” value is reported as 0.0549 and the “area with substrate INLYFQS” value is reported as 0.0455. The “area with substrate KNLYFQS” value was 0.0766, the “area with substrate LNLYFQS” value was 0.0735 and the “area with substrate MNLYFQS” value was 0.0588. The “area with substrate PNLYFQS” value was 0.0395, the “area with substrate RNLYFQS” value was 0.0598 and the “area with substrate WNLYFQS” value was 0.0548. The “area with substrate YNLYFQS” value was 0.066.
In the case of K216M, the “area with substrate GNLYFQS” value is reported as 0.0744 and the “area with substrate YNLYFQS” value is reported as 0.0916.
In the case of L56G, the “area with substrate GNLYFQS” value is reported as 0.0536, the “area with substrate HNLYFQS” value is reported as 0.0509 and the “area with substrate MNLYFQS” value is reported as 0.0475. For the same variant, the “area with substrate NNLYFQS” value was 0.0303, the “area with substrate PNLYFQS” value was 0.0429 and the “area with substrate SNLYFQS” value was 0.0497. For the same variant, the “area with substrate TNLYFQS” value was 0.0532, the “area with substrate VNLYFQS” value was 0.0451 and the “area with substrate WNLYFQS” value was 0.0399. For the same variant, the “area with substrate YNLYFQS” value was 0.0439.
In the case of G8I, the “area with substrate GNLYFQS” value is reported as 0.0795, the “area with substrate HNLYFQS” value is reported as 0.0637 and the “area with substrate LNLYFQS” value is reported as 0.0644. For the same variant, the “area with substrate TNLYFQS” value was 0.0926, the “area with substrate VNLYFQS” value was 0.0815 and the “area with substrate YNLYFQS” value was 0.0152.
In the case of V200Q, the “area with substrate HNLYFQS” value is reported as 0.0502.
With V200K the “area with substrate HNLYFQS” value was 0.0388 and the “area with substrate SNLYFQS” value was 0.0743.
In the case of V200G, the “area with substrate HNLYFQS” value is reported as 0.0615, the “area with substrate INLYFQS” value is reported as 0.0511 and the “area with substrate LNLYFQS” value is reported as 0.0618. For the same variant, the “area with substrate MNLYFQS” value was 0.062, the “area with substrate TNLYFQS” value was 0.068 and the “area with substrate WNLYFQS” value was 0.0571. For the same variant, the “area with substrate YNLYFQS” value was 0.123.
In the case of G8M, the “area with substrate INLYFQS” value is reported as 0.0537, the “area with substrate SNLYFQS” value is reported as 0.0627 and the “area with substrate YNLYFQS” value is reported as 0.067.
For K216P, the “area with substrate KNLYFQS” value was 0.0642, the “area with substrate MNLYFQS” value was 0.0663 and the “area with substrate SNLYFQS” value was 0.0567. The “area with substrate WNLYFQS” value was 0.0803 and the “area with substrate YNLYFQS” value was 0.0596.
With C152H the “area with substrate KNLYFQS” value was 0.0599, the “area with substrate MNLYFQS” value was 0.0453 and the “area with substrate NNLYFQS” value was 0.0597. The “area with substrate PNLYFQS” value was 0.0615.
In the case of V64G, the “area with substrate LNLYFQS” value is reported as 0.0722, the “area with substrate TNLYFQS” value is reported as 0.0901 and the “area with substrate VNLYFQS” value is reported as 0.0521.
For K216C, the “area with substrate LNLYFQS” value was 0.0567, the “area with substrate MNLYFQS” value was 0.0484 and the “area with substrate PNLYFQS” value was 0.0619.
With R160M the “area with substrate LNLYFQS” value was 0.0802.
With G8N the “area with substrate PNLYFQS” value was 0.0739, the “area with substrate RNLYFQS” value was 0.0305 and the “area with substrate SNLYFQS” value was 0.105. The “area with substrate TNLYFQS” value was 0.0853, the “area with substrate VNLYFQS” value was 0.0713 and the “area with substrate WNLYFQS” value was 0.0565.
In the case of D128G, the “area with substrate YNLYFQS” value is reported as 0.083.

— the supplement of paper PMC12217912
